Sequences and labels used below:
B1: GACAAGA (DNA:RNA)
RNA: GGGAGACCGGAAUUCAGAUUGUCCGACAAGAUUAAAUCCCGUCGUAGCCACCA
DNA 1: CAATCTGAATTCCGGTCTCCC
DNA 2: TGGTGGCTACGACGGGATT
B2: CCGUAGU (DNA:RNA)
RNA: B1 RNA with G25C, A26C, C27G, A28U, A31U
DNA 1: CAATCTGAATTCCGGTCTCCC
DNA 2: TGGTGGCTACGACGGGATT
B3: CCCGCUU (DNA:RNA)
RNA: B1 RNA with G25C, A26C, A28G, A29C, G30U, A31U
DNA 1: CAATCTGAATTCCGGTCTCCC
DNA 2: TGGTGGCTACGACGGGATT
B4: AGCUGAG (DNA:RNA)
RNA: B1 RNA with G25A, A26G, A28U, A29G, G30A, A31G
DNA 1: CAATCTGAATTCCGGTCTCCC
DNA 2: TGGTGGCTACGACGGGATT
B5: CAGGCUA (DNA:RNA)
RNA: B1 RNA with G25C, C27G, A28G, A29C, G30U
DNA 1: CAATCTGAATTCCGGTCTCCC
DNA 2: TGGTGGCTACGACGGGATT
B6: CGUGAUC (DNA:RNA)
RNA: B1 RNA with G25C, A26G, C27U, A28G, G30U, A31C
DNA 1: CAATCTGAATTCCGGTCTCCC
DNA 2: TGGTGGCTACGACGGGATT
B7: UAAACAG (DNA:RNA)
RNA: B1 RNA with G25U, C27A, A29C, G30A, A31G
DNA 1: CAATCTGAATTCCGGTCTCCC
DNA 2: TGGTGGCTACGACGGGATT
B8: CCCGAAA (DNA:RNA)
RNA: B1 RNA with G25C, A26C, A28G, G30A
DNA 1: CAATCTGAATTCCGGTCTCCC
DNA 2: TGGTGGCTACGACGGGATT
B9: UUAUGAA (DNA:RNA)
RNA: B1 RNA with G25U, A26U, C27A, A28U, A29G, G30A
DNA 1: CAATCTGAATTCCGGTCTCCC
DNA 2: TGGTGGCTACGACGGGATT
B10: GUAGCUU (DNA:RNA)
RNA: B1 RNA with A26U, C27A, A28G, A29C, G30U, A31U
DNA 1: CAATCTGAATTCCGGTCTCCC
DNA 2: TGGTGGCTACGACGGGATT
B11: UGGUCAC (DNA:RNA)
RNA: GGGAGACCGGAAUUCAGAUUGUCCUGGUCACUUAAAUCCCGUCGUAGCCACCA
DNA 1: CAATCTGAATTCCGGTCTCCC
DNA 2: TGGTGGCTACGACGGGATT
B12: ACACUUU (DNA:RNA)
RNA: GGGAGACCGGAAUUCAGAUUGUCCACACUUUUUAAAUCCCGUCGUAGCCACCA
DNA 1: CAATCTGAATTCCGGTCTCCC
DNA 2: TGGTGGCTACGACGGGATT
B13: UGAACGC (DNA:RNA)
RNA: B11 RNA with G27A, U28A, A30G
DNA 1: CAATCTGAATTCCGGTCTCCC
DNA 2: TGGTGGCTACGACGGGATT
B14: AUCCGAU (DNA:RNA)
RNA: B12 RNA with C26U, A27C, U29G, U30A
DNA 1: CAATCTGAATTCCGGTCTCCC
DNA 2: TGGTGGCTACGACGGGATT
B15: GGGCGUU (DNA:RNA)
RNA: B12 RNA with A25G, C26G, A27G, U29G
DNA 1: CAATCTGAATTCCGGTCTCCC
DNA 2: TGGTGGCTACGACGGGATT
B16: ACGUAUU (DNA:RNA)
RNA: B12 RNA with A27G, C28U, U29A
DNA 1: CAATCTGAATTCCGGTCTCCC
DNA 2: TGGTGGCTACGACGGGATT
B17: GCUUACG (DNA:RNA)
RNA: B1 RNA with A26C, C27U, A28U, G30C, A31G
DNA 1: CAATCTGAATTCCGGTCTCCC
DNA 2: TGGTGGCTACGACGGGATT
B18: GACUCGA (DNA:RNA)
RNA: B1 RNA with A28U, A29C
DNA 1: CAATCTGAATTCCGGTCTCCC
DNA 2: TGGTGGCTACGACGGGATT
B19: CUACUUC (DNA:RNA)
RNA: B12 RNA with A25C, C26U, U31C
DNA 1: CAATCTGAATTCCGGTCTCCC
DNA 2: TGGTGGCTACGACGGGATT
B20: CUCGUGU (DNA:RNA)
RNA: B12 RNA with A25C, C26U, A27C, C28G, U30G
DNA 1: CAATCTGAATTCCGGTCTCCC
DNA 2: TGGTGGCTACGACGGGATT

Residue numbers refer to the chain shown, from its start. Some of the results follow.

The assay addresses T1, RBFOX1 RRM RbFoxmut (Fox-RRM*) (Homo sapiens, UniProt Q9NWB1 109-208, R118D;E147R;N151S;E152T).
T1 sequence: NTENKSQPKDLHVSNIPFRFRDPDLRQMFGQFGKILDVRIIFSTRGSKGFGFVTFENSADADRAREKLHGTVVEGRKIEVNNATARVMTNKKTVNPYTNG
Nature of the assay: EMSA; HiTS-Eq, 1 nM pool, 10 min; buffer printed only for the single-RNA assays: 10 mM Tris pH 7.5, 150 mM NaCl, 3.4 mM EDTA, 0.001% NP-40, 30 C. The conditions noted are these: tags: His6 N-terminal (pET28a); label: 5' 32P. The gist of the method:
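Purified RbFox RRM, wild type or mutant, was incubated for 10 min in 50 µL with 1 nM of a 5′-radiolabelled RNA pool carrying 7 randomized nucleotides, whose flanks were annealed to DNA oligonucleotides, over a series of increasing protein concentrations. Unbound RNA was resolved on 8% native PAGE, cut out, reverse-transcribed, barcoded by PCR and sequenced on an Illumina HiSeq 2500. Relative association constants were derived from changes in read counts for each RNA species versus the control reaction and normalised to the cognate motif.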
(Mobility shift assays separate free from complexed probe on a gel.)
B1: the binding signal is 0.0519 KA relative to UGCAUGU. In the case of B2 it was 0.137 KA relative to UGCAUGU; in that of B3, 0.0512 KA relative to UGCAUGU; in that of B4, 0.101 KA relative to UGCAUGU. Then B5, with 0.0916 KA relative to UGCAUGU; and B6, with 0.118 KA relative to UGCAUGU. In the case of B7 it was 0.0612 KA relative to UGCAUGU; in that of B8, 0.059 KA relative to UGCAUGU; in that of B9, 0.104 KA relative to UGCAUGU. B10: the binding signal was 0.0997 KA relative to UGCAUGU. Then B11, with 0.0874 KA relative to UGCAUGU; and B12, with 0.0803 KA relative to UGCAUGU; and B13, with 0.0965 KA relative to UGCAUGU. Consider B14, for which the binding signal is 0.094 KA relative to UGCAUGU. In the case of B15 it was 0.115 KA relative to UGCAUGU; in that of B16, 0.122 KA relative to UGCAUGU; in that of B17, 0.128 KA relative to UGCAUGU. Then B18, with 0.144 KA relative to UGCAUGU; and B19, with 0.0724 KA relative to UGCAUGU; and B20, with 0.169 KA relative to UGCAUGU.

For the origin of these results see publication PMC9911399, “Two distinct binding modes provide the RNA-binding protein RbFox with extraordinary sequence specificity”.
